# Data published in PubChem BioAssay (Tox21).
# Where “and” joins values, the source holds several entries; their conditions need not be identical. Identical values can stand only once. The inconclusive results got no clear call from the source; some entries with a clear call stand among them for comparison. For some of these results: Where the call is inconclusive, the potency comes from a doubtful curve fit. Calls of active or inactive are those of the source. Unless noted, the call rests on the fitted dose curve; in most records, active means well fitted curve in the direction sought with a large enough effect in the repeat runs; inconclusive means weak or mixed curves; inactive means no such curve, though single readings can be large; an effect the other way counts as inactive or inconclusive.
# Tests used:
# [1] = qHTS assay to identify small molecule antagonists of the peroxisome proliferator-activated receptor delta (PPARd) signaling pathway - cell viability counter screen (AID 743213); details: PPARd-bla HEK293H viability, CellTiter-Glo luminescence, 17 h; viability change, negative = cytotoxic: at 62 µM (top of the series) unless noted; further: nearly all actives have a fitted effect of over 50% in size; further: potency means the concentration at half of the fitted maximal effect
# Summary of the method: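 Cytotoxicity counter screen: CellTiter-Glo luminescence read 30 min after addition, in the same wells as the reporter assay. There, PPARd UAS-bla HEK293H cells (3000/well) were treated 17 h at 37 C with compound and 300 nM L165041.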
# [2] = target: Peroxisome proliferator-activated receptor delta (Homo sapiens) (UniProt Q03181); experiment: qHTS assay to identify small molecule antagonists of the peroxisome proliferator-activated receptor delta (PPARd) signaling pathway (AID 743215; active means well fitted inhibition curve with a large enough effect in the signal ratio in the repeat runs, not every such curve was filed as active; inconclusive means weak or mixed curves, or effect the other way; inactive means no such curve, though single readings can be large or run the other way; the % refers to the signal ratio;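 further: cells stimulated with agonist L165041 at 300 nM final during compound exposure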; further: potency means the concentration at half of the fitted maximal effect; on ratio activity, negative = inhibition: on the % scale 0 is the no-effect control and ±100 the full control effect); details: HEK293H PPARd-UAS-bla, beta-lactamase FRET ratio, antagonist, 17 h; ratio activity, negative = inhibition: at 62 µM (top of the series) unless noted
# UniProt Q03181, sequence (Q03181 whole entry, looked up): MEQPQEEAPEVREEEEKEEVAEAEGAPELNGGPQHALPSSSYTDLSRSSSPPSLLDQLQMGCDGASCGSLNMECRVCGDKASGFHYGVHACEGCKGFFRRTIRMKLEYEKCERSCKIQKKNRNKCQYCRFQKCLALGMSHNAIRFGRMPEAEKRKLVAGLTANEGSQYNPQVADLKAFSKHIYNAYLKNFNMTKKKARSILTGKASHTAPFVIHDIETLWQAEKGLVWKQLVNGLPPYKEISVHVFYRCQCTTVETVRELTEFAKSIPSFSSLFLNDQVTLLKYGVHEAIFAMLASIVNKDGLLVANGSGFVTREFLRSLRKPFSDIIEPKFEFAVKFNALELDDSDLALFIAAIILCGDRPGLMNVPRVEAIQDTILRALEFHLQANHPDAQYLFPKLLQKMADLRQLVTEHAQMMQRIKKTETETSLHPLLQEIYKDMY
# Summary of the method: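 With L165041 present at 300 nM final, compounds were incubated 17 h at 37 C on PPARd UAS-bla HEK293H cells. A FRET-based beta-lactamase substrate was then applied for 2 h at room temperature and fluorescence intensity recorded.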
# [3] = qHTS assay to identify small molecule agonists of the farnesoid-X-receptor (FXR) signaling pathway - cell viability counter screen (AID 743218); details: FXR-bla HEK293T viability, CellTiter-Glo luminescence, 16 h; viability change, negative = cytotoxic: at 62.6 µM (top of the series) unless noted; further: nearly all actives have a fitted effect of over 45% in size; further: potency means the concentration at half of the fitted maximal effect
# Summary of the method: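 After 16 h at 37 C with test compounds, FXR-bla HEK 293T cells were given LiveBLAzer B/G substrate for 2 h at RT and then CellTiter-Glo; luminescence was taken after 30 min.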
# [4] = qHTS assay to identify small molecule antagonists of the farnesoid-X-receptor (FXR) signaling pathway - cell viability counter screen (AID 743221; active means well fitted cell-killing curve with a large enough effect in the repeat runs, not every such curve was filed as active; inconclusive means weak or mixed curves, or effect the other way; inactive means no such curve, though single readings can be large or run the other way; further: nearly all actives have a fitted effect of over 50% in size; further: potency means the concentration at half of the fitted maximal effect); details: FXR-bla HEK293T viability, CellTiter-Glo luminescence, 16 h; activity change, negative = cytotoxicity: at 62.6 µM (top of the series)
# Summary of the method: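 Quantitative HTS of the Tox21 10K library run in parallel with the beta-lactamase reporter read. HEK 293T cells carrying a UAS-driven bla reporter got compound and 50 uM CDCA (final) for 16 h; ATP-based luminescence followed.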
# [5] = target: Vitamin D3 receptor (Homo sapiens) (UniProt P11473); experiment: qHTS assay to identify small molecule antagonists of the vitamin D receptor (VDR) signaling pathway (AID 743223; active means well fitted inhibition curve with a large enough effect in the signal ratio in the repeat runs, not every such curve was filed as active; inconclusive means weak or mixed curves, or effect the other way; inactive means no such curve, though single readings can be large or run the other way; the % refers to the signal ratio; further: potency means the concentration at half of the fitted maximal effect; on activity change, negative = inhibition: on the % scale 0 is the no-effect control and ±100 the full control effect); details: VDR-UAS-bla HEK293T, beta-lactamase FRET ratio, 16 h
# UniProt P11473, sequence (P11473 whole entry, looked up): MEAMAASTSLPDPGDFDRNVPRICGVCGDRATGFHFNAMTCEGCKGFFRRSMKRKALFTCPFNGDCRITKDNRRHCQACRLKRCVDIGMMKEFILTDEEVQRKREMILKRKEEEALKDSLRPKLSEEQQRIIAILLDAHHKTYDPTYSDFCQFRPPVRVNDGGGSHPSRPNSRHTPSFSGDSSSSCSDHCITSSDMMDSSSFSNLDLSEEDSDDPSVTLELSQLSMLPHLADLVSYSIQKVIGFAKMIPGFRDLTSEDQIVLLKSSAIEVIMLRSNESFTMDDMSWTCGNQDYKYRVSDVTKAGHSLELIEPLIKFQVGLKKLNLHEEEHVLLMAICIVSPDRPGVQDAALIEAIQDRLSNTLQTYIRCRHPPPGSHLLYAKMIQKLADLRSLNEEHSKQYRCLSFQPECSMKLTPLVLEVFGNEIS
# Summary of the method: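 Fluorescence from LiveBLAzer B/G FRET substrate, read after 2 h at room temperature, reflects beta-lactamase reporter activity in VDR-bla cells treated 16 h at 37C with compounds and agonist 1alpha,25-dihydroxyvitamin D3 (3 nM final).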
# [6] = qHTS assay to identify small molecule antagonists of the vitamin D receptor (VDR) signaling pathway - cell viability counter screen (AID 743225); details: VDR-bla HEK293T viability, CellTiter-Glo luminescence, 16 h; viability change, negative = cytotoxic: at 61 µM (top of the series) unless noted; further: nearly all actives have a fitted effect of over 50% in size; further: potency means the concentration at half of the fitted maximal effect
# Summary of the method: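 Cells (VDR-UAS-bla HEK 293T) are plated, rested 4 h at 37C, dosed with compound and 3 nM final 1-alpha,25-dihydroxy vitamin D3, and incubated 16 h. Viability is taken from CellTiter-Glo luminescence in the reporter wells.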
# [7] = qHTS assay to identify small molecule agonists of the endoplasmic reticulum stress response signaling pathway (AID 1159516; active means well fitted activation curve with a large enough effect in the signal ratio in the repeat runs, not every such curve was filed as active; inconclusive means weak or mixed curves, or effect the other way; the % refers to the signal ratio; further: potency means the concentration at half of the fitted maximal effect); details: ESRE-bla HeLa, ER stress beta-lactamase reporter, 5 h; activation: at 61 µM (top of the series) unless noted
# Summary of the method: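 Reporter HeLa cells (ESRE-beta-lactamase) underwent 5 hr compound incubation at 37 C and 5% CO2 in quantitative HTS format. Detection followed 2 hr of FRET substrate loading at room temperature.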
# [8] = target: Nuclear receptor ROR-gamma (Homo sapiens) (UniProt P51449); experiment: qHTS assay to identify small molecule antagonists of the retinoid-related orphan receptor gamma (ROR-gamma) signaling pathway (AID 1159521; further: nearly all actives have a fitted effect of over 50% in size; further: potency means the concentration at half of the fitted maximal effect)
# Summary of the method: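 RORγ antagonism is scored from reduced reporter luminescence in Tet-on CHO cells. Induction used 1 uM final doxycycline hyclate for 16 h at 37 C, following a 2 h compound exposure.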
# [9] = target: Bile acid receptor (Homo sapiens) (UniProt Q96RI1); experiment: qHTS assay to identify small molecule antagonists of the farnesoid-X-receptor (FXR) signaling pathway (AID 743217; active means well fitted inhibition curve with a large enough effect in the signal ratio in the repeat runs, not every such curve was filed as active; inconclusive means weak or mixed curves, or effect the other way; inactive means no such curve, though single readings can be large or run the other way; the % refers to the signal ratio; further: on the % scale 0 is the no-effect control and ±100 the full control effect); details: HEK293T FXR-UAS-bla, beta-lactamase ratio, CDCA-stimulated, 16 h; activity change, negative = inhibition: at 62.6 µM (top of the series) unless noted
# UniProt Q96RI1, sequence (Q96RI1 whole entry, looked up): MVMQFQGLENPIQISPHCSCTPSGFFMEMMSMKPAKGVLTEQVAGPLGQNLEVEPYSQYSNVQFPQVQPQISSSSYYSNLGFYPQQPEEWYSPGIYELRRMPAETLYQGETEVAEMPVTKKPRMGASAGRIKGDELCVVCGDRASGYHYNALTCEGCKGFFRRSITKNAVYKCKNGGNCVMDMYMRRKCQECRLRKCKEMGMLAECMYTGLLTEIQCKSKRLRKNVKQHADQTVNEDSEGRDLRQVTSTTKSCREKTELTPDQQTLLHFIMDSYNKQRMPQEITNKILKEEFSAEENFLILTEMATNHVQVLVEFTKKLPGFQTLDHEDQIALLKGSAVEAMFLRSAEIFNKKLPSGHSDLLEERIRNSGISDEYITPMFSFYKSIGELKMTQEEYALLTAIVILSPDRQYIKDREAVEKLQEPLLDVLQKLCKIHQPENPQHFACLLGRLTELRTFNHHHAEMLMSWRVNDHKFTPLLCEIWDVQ
# Summary of the method: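 In this cell-based antagonist screen, inhibition of CDCA-driven (50 uM final) UAS-beta-lactamase expression in HEK 293T cells was measured by FRET fluorescence following 16 h compound exposure at 37 °C.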
# [10] = qHTS assay to identify small molecule agonists of the vitamin D receptor (VDR) signaling pathway - cell viability counter screen (AID 743224); details: VDR-bla HEK293T viability, CellTiter-Glo luminescence, 16 h; activity change, negative = cytotoxicity: at 62.6 µM (top of the series)
# Summary of the method: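 Here cell health was gauged by luminescent ATP detection (CellTiter-Glo, 30 min RT) in VDR-bla cells that had been incubated with test compounds for 16 h at 37C and 5% CO2.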
# [11] = qHTS assay to identify small molecule agonists of the RXR signaling pathway - cell viability counter screen (AID 1159529); further: nearly all actives have a fitted effect of over 50% in size; further: potency means the concentration at half of the fitted maximal effect
# Summary of the method: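 Cell viability is measured by CellTiter-Glo luminescence, 30 min at room temperature, in wells already read for beta-lactamase. Engineered HEK 293T cells (RXR-alpha-UAS-bla) are dosed 16 hr at 37 C. Tetraoctyl ammonium bromide serves as positive control.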
# [12] = target: Vitamin D3 receptor (Homo sapiens) (UniProt P11473); experiment: qHTS assay to identify small molecule agonists of the vitamin D receptor (VDR) signaling pathway (AID 743222; calls by dose curve; further: potency means the concentration at half of the fitted maximal effect); details: HEK293T VDR-UAS-bla, beta-lactamase FRET ratio, 16 h; activation: at 63.5 µM (top of the series) unless noted
# Summary of the method: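 VDR-bla cells were seeded, left 4 h, treated with compounds in DMSO for 16 h, incubated 2 h at RT with B/G FRET substrate, and read for fluorescence.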
# [13] = qHTS assay to identify small molecule agonists of the AP-1 signaling pathway - cell viability counter screen (AID 1159525; calls by dose curve; further: nearly all actives have a fitted effect of over 55% in size; further: potency means the concentration at half of the fitted maximal effect)
# Summary of the method: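 ME-180 AP-1-bla, 2500 cells/well, Opti-MEM + 0.5% dialyzed FBS; overnight 37 °C; cpd 15-pt titration, 5 h 37 °C; CellTiter-Glo 30 min RT; luminescence read; normalised to TOAB and DMSO controls.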
# [14] = target: Retinoic acid receptor RXR-alpha (Homo sapiens) (UniProt P19793); experiment: qHTS assay to identify small molecule agonists of the RXR signaling pathway (AID 1159527; calls by dose curve; further: on the % scale 0 is the no-effect control and ±100 the full control effect; nearly all actives have a fitted effect of over 35% in size); details: HEK293T RXRa-UAS-bla, beta-lactamase ratio, 16 h; activation: at 76.8 µM (top of the series) unless noted
# UniProt P19793, sequence (P19793 whole entry, looked up): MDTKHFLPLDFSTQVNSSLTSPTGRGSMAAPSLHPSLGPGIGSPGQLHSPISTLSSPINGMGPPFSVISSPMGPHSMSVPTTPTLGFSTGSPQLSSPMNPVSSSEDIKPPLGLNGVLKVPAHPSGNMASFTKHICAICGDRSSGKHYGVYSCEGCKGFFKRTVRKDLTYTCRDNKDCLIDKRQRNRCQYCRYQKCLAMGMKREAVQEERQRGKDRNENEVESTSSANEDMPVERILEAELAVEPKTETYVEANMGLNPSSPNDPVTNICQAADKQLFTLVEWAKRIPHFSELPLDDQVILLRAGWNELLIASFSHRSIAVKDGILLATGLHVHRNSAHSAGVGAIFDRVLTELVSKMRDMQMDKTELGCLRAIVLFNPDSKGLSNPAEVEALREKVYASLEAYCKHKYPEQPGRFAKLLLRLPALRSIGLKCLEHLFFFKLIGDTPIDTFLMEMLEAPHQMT
# Summary of the method: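 qHTS of the Tox21 10K library in GeneBLAzer RXR-alpha HEK 293T cells carrying a beta-lactamase reporter […]; 16 hr treatment, 9-cis retinoic acid as agonist control, FRET read-out.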
# [15] = qHTS assay to identify small molecule antagonists of the retinoid acid receptor (RAR) signaling pathway - cell viability counter screen (AID 1159551); further: on the % scale 0 is the no-effect control and ±100 the full control effect; nearly all actives have a fitted effect of over 35% in size
# Summary of the method: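 Seed C3RL4 cells; next day add compound, then retinol to 1 uM final; incubate 6 h at 37 C; add CellTiter-Glo; read luminescence after 30 min at RT.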
# [16] = target: Peroxisome proliferator-activated receptor delta (Homo sapiens) (UniProt Q03181); experiment: qHTS assay to identify small molecule agonists of the peroxisome proliferator-activated receptor delta (PPARd) signaling pathway (AID 743212; calls by dose curve; further: on the % scale 0 is the no-effect control and ±100 the full control effect); details: HEK293H PPARd-UAS-bla, beta-lactamase FRET ratio, 17 h; activation: at 62.6 µM (top of the series) unless noted
# Summary of the method: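 GeneBLAzer PPARd UAS-bla HEK293H cells (beta-lactamase reporter under UAS control), plated and rested 5 h at 37 C, then exposed to compounds in DMSO at 37 C; LiveBLAzer B/G FRET substrate added, 2 h room temperature, fluorescence read.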
# [17] = activity change, negative = inhibition: at 61 µM (top of the series) unless noted
# Tags describe the fitted curve by direction and shape or compound fluorescence and quenching.
structure (smiles),measurement,setting,value
C[C@]12CC[C@@H]3c4ccc(O)cc4CC[C@H]3[C@@H]1CC[C@@H]2O,Potency,[1],"inconclusive: 61.6 µM [cytotoxic, single point]"
same,Potency,[2],inactive
same,Potency,[3],"inconclusive: 5.48 µM [rising, partial curve, poor fit]"
same,Potency,[4],inconclusive: 61.6 µM
same,"activity change, negative = inhibition",[5]; [17],inconclusive: -0.785%
same,"activity change, negative = inhibition",[5]; at 61 µM (top of the series),inactive: 7.98%
same,Potency,[6],inactive
same,activation,[7],inconclusive: 5.61%
same,Potency,[8],"inconclusive: 38.5 µM [inhibitor, partial curve, poor fit]"
CC(C)NCC(O)COc1cccc2ccccc12 (centres undefined),Potency,[1],active: 49.5 µM and active: 21.9 µM
same,Potency,[9],inactive
same,Potency,[3],"inconclusive: 19.5 µM [cytotoxic, partial curve]"
same,Potency,[4],"inconclusive: 19.5 µM [falling, full curve]"
same,"activity change, negative = inhibition",[5]; [17],inconclusive: -37.2%
same,"activity change, negative = inhibition",[5]; at 78.8 µM (top of the series),inactive: 4.03%
same,Potency,[10],"inconclusive: 21.9 µM [cytotoxic, partial curve]"
same,Potency,[7],"inconclusive: 39.3 µM [falling, partial curve, poor fit]"
same,Potency,[8],inactive
same,Potency,[11],"inconclusive: 5.55 µM [cytotoxic, partial curve, poor fit]"
O=C1N=C(O)CN1/N=C/c1ccc(-c2ccc([N+](=O)[O-])cc2)o1,Potency,[4],"inconclusive: 49 µM [rising, partial curve]"
same,Potency,[12],"inconclusive: 2.66 µM [rising, full curve, poor fit]"
same,Potency,[5]; [17],"inconclusive: 27.5 µM [fluorescent, partial curve] and inactive"
same,Potency,[7],"inconclusive: 0.389 µM [rising, full curve, poor fit]"
same,Potency,[8],"inconclusive: 48.6 µM [inhibitor, partial curve, poor fit]"
CCCC(=O)OC(=O)CCC,Potency,[2],inactive
same,Potency,[6],inactive
same,activation,[7],inconclusive: 2.56% [at 78.8 µM]
same,Potency,[13],inactive
same,activation,[14],inconclusive: 19.5%
same,Potency,[11],inactive
O=[N+]([O-])c1c(Cl)cc(Cl)cc1Cl,Potency,[2],inactive
same,Potency,[3],inactive
same,Potency,[4],inactive
same,Potency,[5]; [17],inactive
same,Potency,[7],inactive
same,Potency,[8],inactive
same,Potency,[11],inactive
Cc1ccc([N+](=O)[O-])cc1Cl,Potency,[2],inactive
same,Potency,[4],"inconclusive: 17.6 µM [rising, partial curve, poor fit]"
same,Potency,[10],"inconclusive: 11.1 µM [rising, full curve, poor fit]"
same,Potency,[6],inactive
same,Potency,[7],inactive
same,Potency,[8],"inconclusive: 0.0016 µM [inhibitor, full curve]"
same,Potency,[14],inactive
C=CCCCCCCCCO,Potency,[1],inactive
same,activation,[12],inconclusive: -0.78%
same,Potency,[5]; [17],"inconclusive: 1.23 µM [activator, full curve, poor fit]"
same,Potency,[7],inactive
same,Potency,[8],"inconclusive: 0.0015 µM [inhibitor, full curve, poor fit]"
COc1cc(S(=O)(=O)Nc2ccccc2)c(OC)cc1N,Potency,[2],inactive
same,Potency,[5]; [17],"inconclusive: 6.16 µM [inhibitor, partial curve, poor fit]"
same,Potency,[6],"inconclusive: 21.9 µM [cytotoxic, single point]"
same,activation,[7],inconclusive: 3.85%
same,Potency,[8],inactive
CS(=O)(=O)Nc1ccc([N+](=O)[O-])cc1Oc1ccccc1,Potency,[3],"inconclusive: 17.4 µM [cytotoxic, full curve, poor fit]"
same,Potency,[7],"inconclusive: 13.4 µM [falling, partial curve, poor fit]"
same,Potency,[8],"inconclusive: 34.4 µM [inhibitor, partial curve, poor fit] and inconclusive: 33.5 µM [inhibitor, single point]"
same,Potency,[11],"inconclusive: 21.9 µM [cytotoxic, partial curve]"
O=C(O)CN(CCN(CC(=O)O)CC(=O)O)CCN(CC(=O)O)CC(=O)O,Potency,[2],"inconclusive: 5.8 µM [inhibitor, full curve]"
same,"activity change, negative = inhibition",[5]; [17],inconclusive: -50.9% [at 28.5 µM]
same,Potency,[7],inactive
same,Potency,[13],"inconclusive: 0.117 µM [cytotoxic, single point]"
same,activation,[14],inactive: 6.5% [at 15.8 µM]
same,"activity change, negative = cytotoxicity",[15],inactive: 4.77% [at 19 µM]
C=C(C)c1cccc(C(=C)C)c1,Potency,[16],inactive
same,Potency,[2],inactive
same,Potency,[7],"inconclusive: 19.3 µM [falling, partial curve, poor fit]"
same,Potency,[8],inactive
COc1nc(C)nc(Cl)c1NC1=NCCN1,Potency,[3],inactive
same,Potency,[6],inactive
same,Potency,[7],inactive
same,Potency,[8],inactive
COc1ccc(CCN(C)CCCN2CCc3cc(OC)c(OC)cc3CC2=O)cc1OC,Potency,[2],inactive
same,Potency,[7],"inconclusive: 0.0054 µM [rising, full curve, poor fit]"
same,Potency,[8],inactive
COC(C)OC,"activity change, negative = inhibition",[5]; [17],inconclusive: -2.53%
same,Potency,[10],"inconclusive: 7.73 µM [rising, full curve, poor fit]"
same,Potency,[7],inactive
same,Potency,[8],"inconclusive: 3.84 µM [inhibitor, partial curve, poor fit]"
